Data from PubChem BioAssay (NCI).
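Compound exposure: 48 hours, 5 concentrations, 96-well plates. Here, GI50 denotes the concentration required for 50% inhibition of growth. TGI marks complete inhibition of growth.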

System: NCI-H322M lung
Assay: inhibition of tumour cell growth, NCI panel, 48 h

Compound | TGI [µM] | GI50 [µM]
Cc1cc(O)c2c(c1)C(=O)C(c1c(C)cc3c(c1O)C(=O)C1OC1C3=O)=CC2=O (configuration not stated) | 28.4 | –
Oc1ccc2ccccc2c1OCc1nnc(CCCCCCCCc2nnc(COc3c(O)ccc4ccccc34)o2)o1 | > 100 | –
C(#Cc1ccccc1C#Cc1ccccn1)c1ccccn1 | 31.7 | 13.6
C=C1C(=O)O[C@H]2C3C(=C(C)CC[C@@H]12)C(=O)[C@@H]1OC31C (some centres not stated) | 26.7 | –
O=C(O)CCCc1ccc2c(c1)CC1(C2)Cc2ccc(CCCC(=O)O)cc2C1 | > 100 | –
N#Cc1ccc2c(c1)C(=O)c1c-2n(CCCN=[N+]=[N-])c(=O)c2cc([N+](=O)[O-])ccc12 | > 50 | > 50
Cn1c(=O)c2[nH]c(CCC(=O)O)nc2n(C)c1=O | > 100 | –
CC1(O)C(=O)OC2CC([C@]3(O)CCC4[C@@H]5C[C@H]6O[C@]67[C@@H](O)C=CC(=O)[C@]7(C)C5CC[C@@]43C)C1(C)C2 (some centres not stated) | > 100 | –
CCCCN(CCCC)C(=O)C(=O)CC(=O)/C=C/c1ccccc1 | > 100 | –
O=[N+]([O-])c1ccc(NC(=S)N/N=C(\c2ccccc2)c2ccccn2)cc1 | 2.78 | –
COc1cc(CNC(=O)CCSc2nc3ccccc3c(=O)n2Cc2cc(OC)c(OC)c(OC)c2)cc(OC)c1OC | > 100 | 23
CN1N=Nc2c(C(F)(F)F)nn(-c3ccccc3)c2N(C)C1=O | > 100 | > 100
COc1ccc(/C=C/c2cnc3ccccc3n2)cc1OC | > 100 | –
O=C1OC(c2ccccc2)=N/C1=C/N1CCCC1C(=O)O (configuration not stated) | > 100 | –
O=C(Nc1cccc([N+](=O)[O-])c1)c1cc2ccccc2cc1O | 9.36 | 2.48
c1ccc(CNc2ncnc3n[nH]nc23)cc1 | > 100 | –
CC(C)=CCC/C(C)=C/[C@H]1OC(=O)CC12C[C@H](O)C=CC2=O (some centres not stated) | 3.16 | 1.56
Cc1cc(Cl)ccc1NC(=O)NC(C)(C)COC(=O)Nc1cccc(Cl)c1 | > 100 | 10.7
CCOC(=O)C[n+]1ccc2c([nH]c3cc(OC)ccc32)c1C | > 100 | –
CCOC(=O)/C(C#N)=C(N)/C(=N\Nc1cccc(C(F)(F)F)c1)C(=O)OCC | > 100 | –
COC(=O)C[C@H](CCSC)NC(=O)C[C@H](CCSC)NC(=O)C[C@H](CCSC)NC(=O)OC(C)(C)C | > 100 | –
Cc1nc2sc(C(=O)Nc3cccc(Cl)c3C)c(N)c2cc1C(C)O (configuration not stated) | > 100 | 0.393
COc1cc(/C=C/c2cc(/C=C/c3ccc(O)c(OC)c3)[nH]c(=O)n2)ccc1O | 80.5 | 4.72
